Binding signal data for 172 sequences are collected here from article PMC10668032.

The list shows a part of the results. At the low end of the ranking, values are background and their order means little.

For this experiment, the target named is SIX1-Q177R homeodomain (UniProt Q15475). Kind of experiment: universal protein binding microarray. Conditions: Universal all-10-mer PBM (8x60K, AMADID 030236), 300 nM GST-tagged protein, Alexa Fluor 488 anti-GST; buffer, salt, pH and temperature not stated; high values mean tight binding; most listed sequences are background and not binding sites; double strand, one strand shown.
For CTGCAATC, the binding signal was -0.0149 E-score. To AACCCAAA belongs -0.142 E-score; to GTAGGACA, 0.146 E-score. To ACGTGTCT belongs 0.337 E-score; to CCTTCGGC, -0.166 E-score; to CCTCCCGC, -0.0183 E-score. As for GCACATGC, the binding signal is -0.13 E-score. For CAGGTGGC, the binding signal was -0.153 E-score. Next, ACGTTCTA: -0.169 E-score. Turning to GGACTACA, the binding signal came to 0.0514 E-score.

As for AGCGAAAT, the binding signal is -0.168 E-score.

Consider GTATCAAA, for which the binding signal came out at 0.159 E-score. To GACGGCCC belongs -0.287 E-score.

As to AAGCCGCA, the binding signal is -0.225 E-score. To ATAGTAGA belongs 0.0325 E-score; to AAGCTGTG, 0.0339 E-score; to ATTTAGGA, -0.0626 E-score. Next, AAGTACTA: -0.0924 E-score; AATCTGCG: -0.0932 E-score; ACGCTCTG: -0.0845 E-score. To AACGTAGT belongs -0.106 E-score; to ATCTAATA, 0.0286 E-score.

ATATGTGA: the binding signal was 0.0546 E-score.

As for ACGTTAGA, the binding signal was -0.129 E-score.

For the sequence TATGGTGA, the binding signal was 0.0395 E-score. To CCGGTTAC belongs 0.185 E-score; to AAAGGCGC, -0.0781 E-score. Next, GCAACCAC: -0.05 E-score; CCCGGTGC: 0.154 E-score; GGTTGTAC: 0.122 E-score.

With GCTGAGAC, the binding signal was -0.0687 E-score. To ATGAAACG belongs -0.128 E-score; to GAGGAATA, 0.0895 E-score.

With AGAAGGTG, the binding signal stood at 0.302 E-score. To ATAGGGTG belongs 0.156 E-score; to ATAGCGGG, 0.0254 E-score; to GGCGGTAA, -0.0722 E-score.

As to ATATAACG, the binding signal is -0.00936 E-score. Next, GCGACCAA: -0.151 E-score. Next, ACGTCAAC: -0.122 E-score; AGCGAACG: -0.145 E-score; GGATCCGA: 0.217 E-score. Next, CATCCTAC: -0.0542 E-score. With CACAGCGG, the binding signal was 0.134 E-score. Next, AAGTGCAT: 0.0506 E-score. As for AATAAGAA, the binding signal is -0.236 E-score. To AACGCAGC belongs -0.206 E-score; to AGAGGAGC, -0.183 E-score.

In the case of CGAGCCCG, the binding signal is -0.0428 E-score. Next, CCCTGCAG: 0.185 E-score. Next, ATGACGAA: -0.113 E-score; CCGAACAC: 0.424 E-score. To CCCCAGAC belongs -0.0271 E-score; to ACGCGAAA, -0.127 E-score.

In the case of AGGGGGAA, the binding signal worked out at 0.0648 E-score. To CCGAGGCA belongs 0.0854 E-score. Turning to AATAAAAT, the binding signal was -0.2 E-score. Next, CGAACCCA: 0.0995 E-score; GTACTTAA: 0.0231 E-score; GATTTTCC: -0.254 E-score.

CGTCGGTC: the binding signal was -0.0956 E-score. TCCTGTAA: the binding signal was -0.0539 E-score. Next, CCTTGGCG: 0.142 E-score; CCCACACC: 0.39 E-score.

For ACGCATGC, the binding signal was -0.0268 E-score.

On to GCCATGAA, for which the binding signal is -0.169 E-score.

In the case of GACCTAGA, the binding signal was -0.197 E-score.

Take AATCAACG: the binding signal is -0.206 E-score. Next, CAATACGC: -0.164 E-score; CCCTATTA: 0.0143 E-score; ATTGGTAG: -0.161 E-score. Next, CGCGGAAC: 0.181 E-score. Next, ACTGTCTA: -0.122 E-score; AGCACATA: -0.143 E-score; CGCCTGGA: -0.0463 E-score. For CGAAACCC, the binding signal turned out to be 0.16 E-score. For the sequence AAGGGCTA, the binding signal was -0.166 E-score. Next, CTCACGCA: -0.0186 E-score; CGAAGACC: 0.0795 E-score. AAGCCATT: the binding signal was -0.204 E-score.

TCACCTAA: the binding signal was -0.0387 E-score. Next, GCCCGAAA: -0.0508 E-score. Turning to CCAAAGCA, the binding signal was -0.0258 E-score. Next, ATTAAGAC: -0.172 E-score. Next, TCAATAGA: -0.222 E-score. Next, AGAAAGAA: -0.146 E-score; CACCGCAG: 0.241 E-score; ATGTAGGG: 0.0154 E-score. Take ACGCAGAC: the binding signal is -0.0606 E-score. Next, ACGATACC: 0.357 E-score; AGATCCGG: -0.0104 E-score. To CGCCTAAC belongs -0.0718 E-score; to AGCTGCTA, -0.0646 E-score.

As to AAACAAGT, the binding signal is -0.223 E-score. To GATGCACC belongs 0.126 E-score; to AAAGGATC, 0.0283 E-score; to CTTTGCGA, 0.063 E-score. Next, GAGCTAAC: -0.157 E-score. With CGGAGAGC, the binding signal was -0.154 E-score. To CGCCGCGC belongs -0.0027 E-score; to CGATCGCG, -0.179 E-score; to GAGGCAAC, -0.125 E-score. As for GCGACGTA, the binding signal was -0.0555 E-score. As to ATAAAAGG, the binding signal was -0.0509 E-score. As for ACTGGAGG, the binding signal is 0.00645 E-score. To AGGAAACA belongs 0.115 E-score; to CAGATGAG, -0.0192 E-score. Next, ACATCAGC: -0.23 E-score. To AAAAAATC belongs -0.124 E-score; to CCATGAAG, 0.015 E-score; to CGACCTCG, 0.137 E-score.

As for ACTGTTTA, the binding signal was -0.13 E-score. To CTACTAGA belongs 0.00643 E-score; to ACCAGGCA, 0.151 E-score. For TCATCCCA, the binding signal was -0.129 E-score. To CAAAAGTC belongs -0.232 E-score; to ATCGCAGG, -0.0803 E-score; to CTAAACGC, -0.167 E-score. Next, CTAATTTC: -0.156 E-score; ACCCTGTC: 0.0909 E-score. To CTACATTC belongs -0.271 E-score; to ACACGAAG, 0.346 E-score. Consider CGGGCAGC, for which the binding signal was -0.028 E-score. To ACAAAGAC belongs -0.0879 E-score; to CGTGCAGA, -0.0542 E-score; to GACATGAA, -0.207 E-score. To AACTTTTC belongs -0.0854 E-score; to ACAACAGG, -0.159 E-score; to ACCAGGAC, 0.107 E-score. As to AACGGGGA, the binding signal is -0.021 E-score. On to ACTCGGTC, for which the binding signal came to 0.00537 E-score. As to ACCCGGTG, the binding signal came out at 0.36 E-score. Take CTTTGTCA: the binding signal came out at 0.0588 E-score. To GCCGTGCA belongs 0.0869 E-score.

Regarding CGCGCACA, the binding signal came to 0.138 E-score. To GACACTTA belongs 0.383 E-score; to AGCCACAG, 0.103 E-score; to CAGGTCCC, 0.113 E-score.

As to AGGACCAC, the binding signal is -0.177 E-score. Next, AAACGCTT: -0.171 E-score. Next, CGAGATGA: -0.0477 E-score; CACGTGGA: 0.243 E-score; CCACAAAG: -0.126 E-score.

As to AACTTATG, the binding signal is -0.149 E-score.

On to GAATAGGA, for which the binding signal is -0.215 E-score. For ACGAAGGA, the binding signal is -0.0452 E-score. To CCAATCCC belongs -0.0489 E-score. Next, TATCTCCA: -0.0456 E-score; CATGGGGC: 0.00388 E-score. Turning to CCGCAACA, the binding signal was 0.17 E-score.

TGACGTCA: the binding signal was found to be 0.0147 E-score. On to ACTAGCGC, for which the binding signal is -0.116 E-score. To ACTATTTG belongs -0.0593 E-score; to GTCGTTTA, -0.0555 E-score; to CGTGAAGA, -0.254 E-score. Next, AGCTGTAT: -0.26 E-score.

ATCGCCGG: the binding signal is 0.0629 E-score. Regarding GCCGTAGC, the binding signal is -0.146 E-score.

Turning to ACGACACA, the binding signal stood at 0.273 E-score. To GTTAATTA belongs 0.0411 E-score. As for GATGCTGC, the binding signal is -0.128 E-score. To ATTTACCC belongs 0.127 E-score; to GTATCCTA, 0.187 E-score. Next, CTCCGCAC: -0.126 E-score; AAAGTATT: -0.198 E-score. With ACTCCCCT, the binding signal was determined as 0.249 E-score. On to ACAAAACG, for which the binding signal is -0.0378 E-score.

Take TCTTTGCA: the binding signal was -0.191 E-score. To CTGGAAAG belongs -0.207 E-score; to GCTTCCGA, -0.145 E-score. To CCCCGAGA belongs 0.17 E-score; to CCCGTCGG, 0.0573 E-score.
